Results from patent publication US11779630B2, “Peptides and methods of using the same” (SERPIN PHARMA, LLC, priority 2020, dated 2023).

Assays:
NFκB = NFκB reporter assay (THP1-XBlue-MD2-CD14 cells) stimulated with LPS, SEAP readout; conditions: for NFκB activity (NFκB inducible SEAP in supernatant): peptide 50 μg/ml, LPS 5 ng/ml, overnight (FIG. 1)
Procedure: The reporter cells (THP1-XBlue-MD2-CD14 cells) were treated with each peptide (50 μg/ml) before being insulted with LPS (5 ng/ml) and incubated overnight. The NFκB inducible (Secreted Embryonic Alkaline Phosphatase) SEAP was measured in the supernatant and read for absorbance.
Next, whether blocking LRP1 signaling would have a negating effect on the peptides' ability to reduce NFkB activation was evaluated. The NFkB reporter assay was used and the cells were stimulated with LPS (5 ng/ml) to induce NFkB activity.

[1] = target: recombinant LRP1-FC fusion protein (Cluster II) (Homo sapiens, UniProt Q07954); test: Direct binding to LRP1-bound protein G beads, flow cytometry; conditions: Cy5.5 labeled peptide at 1 μg/ml (FIG. 4)
Procedure: To confirm whether the proposed binding sequence FVFLM is where LRP1 interacts with the SERPIN peptides, SP16AALRP1 peptide having a sequence of […] (SEQ ID NO. 36) was used. […] In this assay, direct binding was assessed, as recombinant LRP1-FC fusion protein (Cluster II), was bound to protein G beads (dynabeads protein G). […] Human IgG was used as a random protein control bound to the beads.

[2] = test system: Balb/c mice, LPS challenge; test: Inflammatory cytokines in mouse LPS challenged model (LPS 5 mg/kg); conditions: 2 hours
Procedure: FIG. 27B: SP16 reduced inflammatory cytokines in mouse LPS challenged model. Balb/c mice were treated with vehicle, SP16 or dexamethasone prior to LPS (5 mg/kg). The cytokines were measured in the plasma at 2 hours via ELISA and compared with those from vehicle treated group. (**p<0.001).
Using a mouse model of lethal endotoxemia, in which mice were challenged with LPS (15 mg/kg), resulting in 100% mortality by 36 hours, the assessment brings focus to the potential of SP16 to regulate the cytokine storm underlying sepsis. In this model, all mice treated with SP16 survived (100% survival between 30 and 42 hours), whereas all control mice died (no survivors by 30 hours in the vehicle control group). […] This is congruent to the outcomes from high-dose levels of dexamethasone (FIG. 27B). SP16 was consistently shown to reduce TNFα, IL-6, and IL-1β, some of the most prominent and reliable biomarkers for predicting morbidity and mortality in sepsis.

RAW264.7 macrophages = test: LPS induced cytokine production in RAW264.7 macrophages, ELISA; conditions: peptide 1 hour before LPS, 24 hours
Procedure: (§1) FIGS. 25A-25B show the effect of SP16 on LPS induced cytokine production in murine macrophages. FIG. 25A: LPS (1 Ong/ml) was added to RAW264.7 macrophages after incubation for 1 hour with the indicated concentrations of peptide or vehicle. After 24 hours of incubation, the supernatant was assayed by ELISA for levels of TNFα or IL-6. FIG. 25B: IMG Microglial cells. SP16 (100 μg/ml), 24 hours LPS (100 ng/ml) in triplicates. Cytokines supernatant levels (pg/ml). * p-value<0.05, **, p-value<0.01.

IMG microglial cells = test: LPS induced cytokines in IMG microglial cells, multiplex assay; conditions: peptide 100 μg/ml, 24 hours, LPS 100 ng/ml
Procedure: as §1
Neuroinflammation plays a critical role in neurodegenerative disease, such as Alzheimer's Disease (AD). Reactive glia cells (such as microglial cells) play a key role in both disease initiation and progression becoming activated through dysregulated clearance of beta amyloid and other damage associated molecular patterns (DAMPs).^13 AB deposition and tau hyper-phosphorylation contribute to microglial activation, NFκB inflammatory pathway activation and release of pro-inflammatory cytokines such as TNFα, IL-6 and IL-1β, which contribute to neuronal damage and loss. […] Cytokines levels (pg/ml) in the supernatant were measured by multiplex assay.

## FPKMVPQFNTELKIFPEVNIK (FPKMVPQFNTELKIFPEVNIK; peptide derivative) [SP34, reference compound]
NFκB
  NFκB activity (NFκB inducible SEAP in supernatant): neither the scrambled core control peptide nor the AAT C-36 fragment decreased the NFκB activity
[1]
  binding to LRP1 bound beads (fluorescence): did not bind to LRP1 either

## SIPPEVKFNKPFVFLMIEQNTKSPLFMGKVVNP (SIPPEVKFNKPFVFLMIEQNTKSPLFMGKVVNP; listed as Homo sapiens) [SP8, reference compound]
NFκB
  NFκB activity (NFκB inducible SEAP in supernatant): neither the scrambled core control peptide nor the AAT C-36 fragment decreased the NFκB activity
NFκB; without LPS
  NFkB induction by the peptide itself: showed NFkB inducible properties without the need for LPS

## V K F N K P F V F L M I E Q N T K (VKFNKPFVFLMIEQNTK; listed as Homo sapiens) [SP16]
[2]
  IL-1β and TNFα serum levels: significant reduction of IL-1β and TNFα serum levels
RAW264.7 macrophages
  TNFα in supernatant: significantly reduced cytokine TNFα (p<0.05)
RAW264.7 macrophages; p<0.01
  IL-6 in supernatant: significantly reduced
IMG microglial cells
  IL-10 in supernatant: highly upregulating anti-inflammatory IL-10

## VKFNKAAAAAAIEQNTK (peptide derivative) [SP16AALRP1]
[1]
  binding to LRP1 bound beads (fluorescence): did not bind to LRP1
